In all, about 330,000 compounds went through this assay and about 4,200 (1.3%) were called active. The inconclusive results got no clear call from the source; some entries with a clear call stand among them for comparison. The call rests on the fitted dose curve; in most records, active means well fitted activation curve with a large enough effect; inconclusive means small, poorly fitted or top-dose-only effect; inactive means no such curve, though single readings can be large or run the other way. Potencies of inconclusive entries are doubtful fits and often do not repeat.
experiment: qHTS screen for small molecules that induce genotoxicity in human embryonic kidney (HEK293T) cells expressing luciferase-tagged ELG1; conditions: HEK293T ELG1-luciferase reporter, luminescence, 16 h; series mostly up to 46 µM; further: nearly all actives have a fitted effect of over 60% in size
Summary of the method: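 After overnight (16 hr) compound treatment at 37 °C, ELG1-luciferase HEK293T cells were lysed with ONE-Glo; luminescence quantified 30 min later at room temperature.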
Potency means the concentration at half of the fitted maximal effect; tags describe the fitted curve by direction and shape.

SMILES | Potency
O=C(c1cccs1)c1no[n+]([O-])c1C(=O)c1cccs1 | inconclusive: 25.9 µM [activator, partial curve, poor fit]
COc1ccc(-n2nc([N+](=O)[O-])c(=NCc3ccc4c(c3)OCO4)n2O)cc1 | inconclusive: 9.2 µM [activator, partial curve]
COCCOC(=O)/C(=C/c1ccc(OC(=O)c2ccccc2)cc1)C(C)=O | inconclusive: 20.6 µM [activator, partial curve, poor fit]
CC(C)(C)OC(=O)NCCCCCNC(=O)c1nc[nH]c1C(=O)NCCCCCNC(=O)OC(C)(C)C | inactive
N#Cc1ccc(S(=O)(=O)N2CCc3[nH]c4ccc(F)cc4c3C2)cc1 | inactive
COc1ccc(Cl)cc1NC(=O)c1cc(-c2ccccc2O)n[nH]1 | inactive
COc1cccc(NC(=O)COC(=O)CCS(=O)(=O)c2ccc(C)cc2)c1 | inactive
O=C1/C(=C/c2ccco2)Cc2ccccc21 | inconclusive: 23.1 µM [activator, partial curve, poor fit]
CN1CCN(c2ccccc2NC(=S)NC(=O)c2cc3ccccc3o2)CC1 | inactive
Cc1cccc(-c2nnc(SCC(=O)N3CCCC3)o2)c1 | inconclusive: 4.47 µM [activator, full curve]
Cc1nc(C)c(CCNC(=O)c2ccccc2)s1 | inactive
CCSc1nnc(NC(=O)c2cccnc2Cl)s1 | inconclusive: 32.6 µM [activator, partial curve, poor fit]
COc1cc(NC(=O)C(C)C)ccc1NC(=O)c1ccco1 | active: 7.94 µM
Cn1c(N/N=C/c2cc3ccccc3nc2Cl)nc2ccccc21 | inconclusive: 0.461 µM [activator, full curve, poor fit]
COc1ccc(CCNC(=O)c2[nH]c(C)c(C(C)=O)c2C)cc1OC | inactive
O=c1[nH]c(COc2ccc(Cl)cc2Br)nc2ccccc12 | inconclusive: 18.3 µM [activator, partial curve, poor fit]
N#Cc1cc2c(nc1SCC1COc3ccccc3O1)CCC2 (stereo not given) | inconclusive: 20.6 µM [activator, partial curve, poor fit]
Cc1nn(CC(=O)NCCCN2CCC(N3CCCCC3)CC2)c(=O)c2cc(-c3ccccc3)nn12 | inconclusive: 32.6 µM [activator, partial curve, poor fit]
O=C(c1ccc(Cl)cc1)c1c[nH]c(C(=O)NNc2ccccc2)c1 | inconclusive: 23.1 µM [activator, partial curve, poor fit]
CCOc1ccc(NC(=O)Nc2cccnc2)cc1 | inconclusive: 18.3 µM [activator, partial curve, poor fit]

Reference: PubChem BioAssay AID504466 (National Center for Advancing Translational Sciences (NCATS), 2011)
